# Assay results: the RNAGym collection of RNA variant scans (doi:10.7554/elife.90254)
# The source gives no read counts; variants with many changes may rest on few reads.
# B1: LINE1-mini (parent)
# chain: GGCAGAGCUCAACACAGCGUGGCAAAGUGGCUGUGGCUAGACUGCC
# Variants of: B1
# Assay: self-cleavage, relative activity (ratio to wild type); higher = more cleavage; in vitro, sequencing; the parent is a self-cleaving ribozyme
row,Variant,self-cleavage
1,GGGAGAGCUCAACACAGCGUGGCAAAGUGGCUGUGGCUAGAUUACC [C3G C42U G44A],0.28
2,GGGAUAGCCCGACACAGCCUGGCAAAGUGGAUGUGGCUAGACUGCC [C3G G5U U9C A11G G19C C31A],0.01
3,GGGACAGCUCAACAUAGCAUGGCACAGUUGCUGUCGCUGGACUGCC [C3G G5C C15U G19A A25C G29U G35C A39G],0.04
4,GGGAGAGCUCAACACAGCGUAGCAAAGUGGCUGUUGCGAGACUGGC [C3G G21A G35U U38G C45G],0.03
5,GGGAGAUCUCAACACAGCGUGGCAAAGUGGCUGUGGCUAAACUGCC [C3G G7U G40A],0.15
6,GGGAGAGCUCAACACAACGUGGCAAAGUGGCUGUACCUAGACUGCC [C3G G17A G35A G36C],0.07
7,GGGACAGCUCCACACAGCGUGGCAAAGUGGCUGUGGCUAGACUGCC [C3G G5C A11C],0.06
8,GGGAGACCUCAAGACAGCGUGGCAAAGUGGCUGUGUCUAGACUGCC [C3G G7C C13G G36U],0
9,GGGAUAGCUCAACACAGCGUGACAAAGUGGCUGUGGCUAGACUGCC [C3G G5U G22A],0.11
10,GGGAGAACUCAACACAGCGUGGCAAUGUGGCUGCGGCUAAACUGCC [C3G G7A A26U U34C G40A],0.16
11,GGGAAAGCUCUACACAGCGUGGCUAAGUGGCUGUGGCUAUACUGCC [C3G G5A A11U A24U G40U],0.08
12,GGGAGAGCUCAACACAGCGUGGGAAAGUGGCUGUAACGAGACUGCC [C3G C23G G35A G36A U38G],0.09
13,GGGAGAGCUCAACACAGCUUGGCAAAGUGGCUGUUGCUAGACUGCC [C3G G19U G35U],0.03
14,GGGAGAGCUCAACACAGCGUGGUAAAUUGGCUGUGGCUAGACUUUC [C3G C23U G27U G44U C45U],0.1
15,GGGAGAGCUCAACACAGCGUUGCAAAGUGGCUGCGGCUAAACUGCC [C3G G21U U34C G40A],0.05
16,GGGAUAGCUCAACACAGCGUGGUAAAGUGGCUGUGGCAAGAUUGCC [C3G G5U C23U U38A C42U],0.09
17,GGGAGACCUCAACACAGCGUGGAAAAGUGGCUGUGGCUAGACUGGC [C3G G7C C23A C45G],0.01
18,GGGAGACCUCAACACAGCGUGGCAAAGUGGCUGUGGCAAGACUUCC [C3G G7C U38A G44U],0.02
19,GGGAGAACUCAACACAGCGCGGCAAAGUUGCUGUGGGUAGACUGCC [C3G G7A U20C G29U C37G],0.03

row,Variant,self-cleavage
1,GGGAGAGCUCAACACAACGUGGCAAAGUGGCUGUAGCUAGACUGCC [C3G G17A G35A],0.15
2,GGGAGAACUCAACACAGCGUGGCACAUUGGCUGUGGCUAGACUGCC [C3G G7A A25C G27U],0.08
3,GGGAAAGCUCAACACAGCGUGCCAAAGUGGCUAUGGCUAGACUGCA [C3G G5A G22C G33A C46A],0.07
4,GGGAGACCUCAACACAGCGUGGCAAAGUGGCUGUGGCUAGACAGCC [C3G G7C U43A],0.08
5,GGGAGACCUCAACACAGCGUGGCAAAGUGGCUUAGGUUAGACUGCC [C3G G7C G33U U34A C37U],0.02
6,GGGAGAUCUCAACACAGCGUGAUAAAGUGGCUGUGGCUAGACGGCC [C3G G7U G22A C23U U43G],0.01
7,GGGAGAGCUCAACACAGCGUAGCAAAGUGGCUGUGGCUAUACUGCG [C3G G21A G40U C46G],0.08
8,GGGAUAGCUCAAAACAGCGUGGAAAAGUGGCUGUGGGUAGACUGCC [C3G G5U C13A C23A C37G],0.02
9,GGGAGAACUCAACACAGCGUGGCAAAGUGGCUAUGGCUAGACUGCC [C3G G7A G33A],0.19
10,GGGAGAGCUCAACACAGCGUGGGUAAGUGGCUGGGGCUAGACUGCC [C3G C23G A24U U34G],0.03
11,GGGAGAUCUCAACACAGCGUGGCAAAGUGCCUGUGGCUAGACUGCC [C3G G7U G30C],0.11
12,GGGAGAUCUCAACACAGCGUGGCAAAGAGGAUGUGGCUAGACUGCC [C3G G7U U28A C31A],0.02
13,GGGAGAGCUCAACACAGCGUCGCAGAGUGGCUGUCGCUAGACUGCC [C3G G21C A25G G35C],0.09
14,GGGAGAGCUCAACACAGCGUCGCAAAGAGGCUGUGACUAGACUGCC [C3G G21C U28A G36A],0.08
15,GGGAGAGCUCAACACAGCGUGGUAAACUGGCUGUGGCUAGACUGCC [C3G C23U G27C],0.08
16,GGGAAAGCUCAACACAGCGUGUCAGAGUGGCUGUGCCUAGACUGCC [C3G G5A G22U A25G G36C],0.11
17,GGGAGAACUCAAAACAGCGUGGCAAAGUGGCUUUGGCUAGACUGCC [C3G G7A C13A G33U],0.06
18,GGGAGAUCUCAACACAGCGUGGCAAAGUGGCUGUGGCUAGACUGGC [C3G G7U C45G],0.13
19,GGGAGAGCUCAACACAGCGUUGCAAAGUGGCUGUGGUUAGACUGGC [C3G G21U C37U C45G],0.13

row,Variant,self-cleavage
1,GGGAGACCUCAACACAGUUUGGCAAAGUGGCUGUGGCUAGACUGCC [C3G G7C C18U G19U],0.03
2,GGGAGACCUCAACACCGCGUGGCAAAGUGGCUGUUGAUAGACUGCC [C3G G7C A16C G35U C37A],0
3,GGGAAAGCUCAACACAGCGUGGCAAAGUGGCUGUGGCUAGAAUGCC [C3G G5A C42A],0.04
4,GGGAGAAAUCAACACAGCGUGGCGAAGUGGCUGUGGCUAGACUGCC [C3G G7A C8A A24G],1.26
5,GGGAUAGCUCAAGACAGCGUGCCAAAGUGGCUGUGGCUAGCCUGCC [C3G G5U C13G G22C A41C],0.03
6,GGGAGACCUCAACACAGAGUGGCAAAGUGGCUGUGGCUAGACUGCC [C3G G7C C18A],0.05
7,GGGAGAGCUCAACACAGCGUGGGAAAGUGGCUGCGGCUAGACUGUC [C3G C23G U34C C45U],0.05
8,GGGAGAUCUAAACACAGCGUGGCAUACUGGCUGUGGCUAGACUUCC [C3G G7U C10A A25U G27C G44U],0.01
9,GGGAAAGCUCAACACAGAGUGGCAAAGUGGUUGUGGCUAGACUGCC [C3G G5A C18A C31U],0.05
10,GGGAGAAAUCAACACAAUGUGGCAAUGAGGCUGUGGAUAGACUGCC [C3G G7A C8A G17A C18U A26U U28A C37A],0.3
11,GGGAUAGCUCAACACAGCGUGGCAAAGAGGCUGUGGCUAAACUGCC [C3G G5U U28A G40A],0.05
12,GGGAGACAUCAACACAGCGUGGCAAAGUGGCUGGGGCUAGAAUGCC [C3G G7C C8A U34G C42A],0.1
13,GGGAGAACUCAACACAGCGUGGCAAAGUGGCUGUGGCUAGGCUGCC [C3G G7A A41G],0.11
14,GGGAGAUCUCAACAAAGCGUGGCUAAGUGGCUGUGGCUAGACUGCC [C3G G7U C15A A24U],0.06
15,GGGAGAGCUCAACACAGCGUGGUAAAGUGCCUGUGGCUAGAUUGCC [C3G C23U G30C C42U],1.21
16,GGGAAAGCUCAUCAUAGCGUGGCAAACUGGCUGUGGCUAGACUGCC [C3G G5A A12U C15U G27C],0.03
17,GGGAUAGCUCAAAACAGCGUGGCAAAGUGGCUGUGGCUAAACUGCC [C3G G5U C13A G40A],0.1
18,GGGAGAGCUCAACACAGCGUGGGAAAGUGGCUGUGGAUAGACUGCC [C3G C23G C37A],0.04
